From PubChem BioAssay AID504332 (National Center for Advancing Translational Sciences (NCATS), 2011)
“And” between values parts separate entries of the source, which are not always exact repeats. Identical values can stand only once. The campaign covered roughly 350,000 compounds. About 31,000 (8.9%) were called active. This list was built around the results that the source calls inconclusive (neither active nor inactive); the mix of calls is not that of the screen. Calls come from the whole dose curve; as a rule, active = well fitted inhibition curve with a large enough effect; inconclusive = small, poorly fitted or top-dose-only effect; inactive = no such curve, though single readings can be large or run the other way. Potencies beside an inconclusive call are fits to weak or partial responses and may not hold up.

What follows are compounds tested against Histone-lysine N-methyltransferase EHMT2 (Homo sapiens) (UniProt Q96KQ7) (assay: qHTS Assay for Inhibitors of Histone Lysine Methyltransferase G9a). Conditions: G9a H3K9 monomethylation, AlphaScreen, 2 h; activity, negative = inhibition: at 59 µM (top of the series) unless noted.
In short: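 Compounds were preincubated with 20 nM G9a for 15 min, after which biotinylated H3K9 peptide (500 nM) and SAM (20 uM) started a 2 h room-temperature reaction. Monomethylated product was quantified by antibody-based AlphaScreen chemiluminescence.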
% is set by controls: 0 for no effect and ±100 for the full control effect; potency is the fitted concentration of half-maximal effect; tags give direction and shape of the fitted curve.
Note: nearly all actives have a fitted effect of over 75% in size.

Chain of UniProt Q96KQ7 (Q96KQ7 whole entry, looked up): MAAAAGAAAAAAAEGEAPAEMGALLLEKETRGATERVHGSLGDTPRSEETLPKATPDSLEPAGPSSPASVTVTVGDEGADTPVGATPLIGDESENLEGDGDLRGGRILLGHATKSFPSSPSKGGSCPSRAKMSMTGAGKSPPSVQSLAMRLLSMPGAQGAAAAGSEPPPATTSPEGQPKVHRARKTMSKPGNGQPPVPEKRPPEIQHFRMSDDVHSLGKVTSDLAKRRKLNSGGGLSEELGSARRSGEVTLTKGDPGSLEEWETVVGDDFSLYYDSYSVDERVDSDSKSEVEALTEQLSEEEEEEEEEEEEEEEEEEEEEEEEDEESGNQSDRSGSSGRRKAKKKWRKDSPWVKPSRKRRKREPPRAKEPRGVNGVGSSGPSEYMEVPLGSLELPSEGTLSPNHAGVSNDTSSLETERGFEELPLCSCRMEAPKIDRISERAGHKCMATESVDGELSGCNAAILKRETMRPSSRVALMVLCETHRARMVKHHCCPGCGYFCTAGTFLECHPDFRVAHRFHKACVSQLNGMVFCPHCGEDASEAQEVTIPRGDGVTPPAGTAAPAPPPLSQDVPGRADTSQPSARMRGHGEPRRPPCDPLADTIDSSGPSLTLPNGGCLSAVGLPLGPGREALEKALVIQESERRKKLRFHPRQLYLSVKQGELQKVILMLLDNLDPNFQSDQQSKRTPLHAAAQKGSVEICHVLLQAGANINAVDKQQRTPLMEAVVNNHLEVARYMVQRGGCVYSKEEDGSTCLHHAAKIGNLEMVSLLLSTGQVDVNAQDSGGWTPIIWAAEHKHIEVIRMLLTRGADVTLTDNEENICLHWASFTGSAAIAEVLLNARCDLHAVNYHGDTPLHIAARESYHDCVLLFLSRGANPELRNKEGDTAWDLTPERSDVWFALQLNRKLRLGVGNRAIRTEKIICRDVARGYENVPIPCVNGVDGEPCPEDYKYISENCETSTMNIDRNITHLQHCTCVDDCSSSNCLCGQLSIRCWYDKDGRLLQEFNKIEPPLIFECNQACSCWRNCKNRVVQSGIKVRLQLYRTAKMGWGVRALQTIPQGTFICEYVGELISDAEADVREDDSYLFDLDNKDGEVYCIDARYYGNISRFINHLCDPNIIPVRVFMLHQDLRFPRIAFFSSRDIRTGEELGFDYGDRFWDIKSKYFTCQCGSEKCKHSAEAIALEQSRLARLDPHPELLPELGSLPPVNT

Row | Compound | activity, negative = inhibition | Potency
1 | COC(=O)N1CCC2(CCCN(C(=O)Nc3cccc(C#N)c3)C2)CC1 | inactive: -32.6% [at 12.7 µM] | 
2 | C#CCOc1ccc(C2C(C(=O)OC)=C(C)NC3=C2C(=O)c2ccccc23)cc1OCC (centres undefined) |  | active: 11.2 µM
3 | Cc1sc(NC(=O)C2CSC3(C)CCC(=O)N23)nc1-c1ccccc1 (centres undefined) |  | active: 50.1 µM
4 | CCCc1ncc(C[n+]2ccccc2C)c(N)n1 |  | inconclusive: 11.2 µM [inhibitor, single point] and inconclusive: 15.8 µM [inhibitor, partial curve, poor fit]
5 | COc1ccc(N2CCN(C(=O)CN(Cc3ccccc3)S(C)(=O)=O)CC2)cc1 |  | active: 50.1 µM
6 | Cc1cc([N+](=O)[O-])nn1CC(=O)NNC(=S)Nc1ccc([N+](=O)[O-])cc1 | inconclusive: -113% [inhibitor] | 
7 | COC(=O)c1sccc1NC(=O)Nc1ccc(C)c(C)c1 |  | inconclusive: 2.82 µM [inhibitor, partial curve, poor fit]
8 | COc1cccc(CNC(=O)C2CCCN(S(=O)(=O)c3cccc4nonc34)C2)c1 (centres undefined) |  | inconclusive: 89.1 µM [inhibitor, partial curve, poor fit]
9 | c1ccc(-c2nnc3sc(-c4csc5c4CCCC5)nn23)cc1 |  | active: 5.01 µM
10 | COc1ccc(Nc2ccncc2[N+](=O)[O-])cc1 |  | inactive
11 | CCOC(=O)c1[nH]cnc1C(=O)NC(C)C |  | inconclusive: 31.6 µM [inhibitor, single point]
12 | CN(C)CCCn1c(=O)n(Cc2ccccc2)c(=O)c2c3c(sc21)CCCCC3 |  | inconclusive: 79.4 µM [inhibitor, single point]
13 | O=C(c1ccc(-n2cccn2)cc1)N1CCc2c([nH]c3ccccc23)C1c1ccccn1 (centres undefined) |  | inconclusive: 39.8 µM [inhibitor, partial curve]
14 | Cc1ccc(C)c(CSc2c(C(C)C)cnc3c2c(=O)n(C)c(=O)n3C)c1 |  | inconclusive: 39.8 µM [inhibitor, single point]
15 | COc1ccccc1-c1cn[nH]c(=S)n1 | inconclusive: -114% [inhibitor] [at 12.7 µM] | 
16 | CC(C)NC(=O)CC(=O)N/N=C/c1cccs1 |  | inconclusive: 31.6 µM [inhibitor, partial curve]
17 | Cc1cc(C)c(OCCNCc2ccccc2)c(C)c1 |  | active: 7.08 µM
18 | Cc1ccnc(SCc2cc(=O)c(OC(=O)c3cc([N+](=O)[O-])ccc3Cl)co2)n1 |  | inconclusive: 31.6 µM [inhibitor, single point]
19 | COc1ccc(CN2CCCCCC2)c(C)c1C |  | active: 8.91 µM
